Experimental data: paper PMC4336329 (PLoS ONE, 2015)
About 14,000 (4.5%) of roughly 310,000 compounds showed an effect of 50% or more. Effects have a minus sign here. This is one part of the list.

Target: human ether-à-go-go-related gene (hERG) potassium channel (human, UniProt Q12809)
Test: primary screen, population patch clamp on CHO cells stably expressing hERG
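Note: peak tail current of the secondary pulse compared with the same well before compound.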

human ether-à-go-go-related gene (hERG) potassium channel, sequence (Q12809 whole entry, looked up): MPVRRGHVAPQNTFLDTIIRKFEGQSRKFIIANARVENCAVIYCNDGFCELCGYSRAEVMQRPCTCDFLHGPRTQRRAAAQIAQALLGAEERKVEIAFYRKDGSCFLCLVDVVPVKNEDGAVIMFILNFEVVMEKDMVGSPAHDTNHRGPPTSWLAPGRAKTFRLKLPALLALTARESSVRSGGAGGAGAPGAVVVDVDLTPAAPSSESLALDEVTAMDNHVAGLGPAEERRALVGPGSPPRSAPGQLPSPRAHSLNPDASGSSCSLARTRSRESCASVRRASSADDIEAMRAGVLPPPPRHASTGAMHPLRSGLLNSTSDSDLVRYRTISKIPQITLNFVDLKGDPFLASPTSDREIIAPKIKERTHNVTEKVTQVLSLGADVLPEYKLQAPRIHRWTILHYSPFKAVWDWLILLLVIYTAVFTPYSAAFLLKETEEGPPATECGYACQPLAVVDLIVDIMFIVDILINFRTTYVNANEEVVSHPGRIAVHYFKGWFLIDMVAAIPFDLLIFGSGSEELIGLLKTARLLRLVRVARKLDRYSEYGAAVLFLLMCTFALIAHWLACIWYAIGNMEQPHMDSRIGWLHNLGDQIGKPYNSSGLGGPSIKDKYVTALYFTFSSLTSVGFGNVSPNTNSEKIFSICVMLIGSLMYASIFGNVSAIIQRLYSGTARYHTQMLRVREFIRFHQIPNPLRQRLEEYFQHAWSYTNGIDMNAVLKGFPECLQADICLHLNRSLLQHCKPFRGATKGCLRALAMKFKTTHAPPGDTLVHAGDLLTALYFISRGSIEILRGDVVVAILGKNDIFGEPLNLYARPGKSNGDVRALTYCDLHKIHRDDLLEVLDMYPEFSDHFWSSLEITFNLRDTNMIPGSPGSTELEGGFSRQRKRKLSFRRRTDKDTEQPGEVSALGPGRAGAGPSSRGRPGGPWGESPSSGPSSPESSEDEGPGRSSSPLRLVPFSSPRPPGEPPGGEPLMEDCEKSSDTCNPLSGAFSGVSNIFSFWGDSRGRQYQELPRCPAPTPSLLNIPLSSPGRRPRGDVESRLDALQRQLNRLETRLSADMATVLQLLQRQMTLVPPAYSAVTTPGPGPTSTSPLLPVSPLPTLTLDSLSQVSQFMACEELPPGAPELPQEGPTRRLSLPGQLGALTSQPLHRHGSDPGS

SMILES	hERG current change (%, negative = inhibition) at 10uM
CSc1nsc(SC)c1NC(=O)OCC1CCCO1 (stereo not drawn)	19.7%
CCOc1ccc(C(=O)NCC(=O)OCc2c(F)cccc2Cl)cc1	-2.7%
CCOc1ccc(C(=O)NCC(=O)NCC(c2ccco2)N2CCCCC2)cc1OCC (stereo not drawn)	-30.8%
Cc1nn(-c2ccccc2)c(Cl)c1/C=N/NC(=O)c1ccccc1F	14.6%
COc1cc(CNCc2ccccn2)ccc1OCc1cccc(Cl)c1.Cl	-54%
CCOc1ccc(N(CC(=O)Nc2cccc(C)c2C)S(=O)(=O)c2c(C)[nH]c(=O)[nH]c2=O)cc1	8.48%
CCc1ccc(CN2CC(C(=O)O)CC2=O)cc1 (stereo not drawn)	0.576%
Cc1nn(-c2cccc(Cl)c2)c2nc(-c3ccco3)cc(C(=O)O)c12	19%
Cc1cccc(NC(=O)Nc2cccc(C)n2)n1	11.4%
CC(C)c1ccccc1NC(=S)NCC1(N(C)C)CCCCC1	-10.3%
O=C(CN1CCN(c2ccc(Cl)cc2)CC1)Nc1cccc(F)c1	-3.54%
ClCc1nnc(-c2ccccc2)o1	18.8%
Cc1ccnc(NS(=O)(=O)c2ccc(NC(=O)CCc3ccccc3)cc2)n1	16.4%
COc1ccc(C2C(CC(=O)O)=C(O)C(=O)N2c2ccccc2)cc1 (stereo not drawn)	7.18%
CCCCn1c(=O)[nH]c(=O)c2c1nc(-c1ccc3ccccc3c1)n2CC	22.7%
Cn1nc(C(F)(F)F)c2cc(C(=O)Nc3ccc(C(F)(F)F)cc3)sc21	17%
O=[N+]([O-])c1ccc(NCc2ccccn2)nc1	-5.06%
COc1cc2c(cc1OC)CN(CCOc1ccc(Br)cc1)CC2	-68.8%
CCCCNC(=O)c1cc2nc3c(c(C(F)(F)F)n2n1)CCc1ccccc1-3	5.29%

SMILES	hERG current change (%, negative = inhibition) at 10uM
CC(=O)Nc1ccc(NS(=O)(=O)c2ccc3ccccc3c2)cc1	-6.01%
COc1ccc(NC(=O)CSc2nc(C)cc(C(F)(F)F)n2)cc1	-27.4%
N#Cc1c(N)nc(SCc2ccncc2)c(C#N)c1-c1cccs1	-4.79%
O=C(NCCC1=CCCCC1)C1COc2ccccc2O1 (stereo not drawn)	-20.2%
CC(Sc1nnc(N)s1)c1ccccc1Cl (stereo not drawn)	-6.14%
CC(C)CC(=O)NC(NC(=S)Nc1cccc2cccnc12)C(Cl)(Cl)Cl (stereo not drawn)	16.1%
COc1ccc(-c2nc3ccccc3c(=O)n2-c2nccs2)cc1	0.961%
O=C1NN(c2cccc(Br)c2)C(=O)/C1=C/c1ccc(-c2cc([N+](=O)[O-])ccc2O)o1	-9.65%
Cc1ccnc(NC(=O)c2cc([N+](=O)[O-])cc([N+](=O)[O-])c2)c1	10.9%
CCNC(=O)OCC(CC)NC(=O)OCC(C)C (stereo not drawn)	6.29%
O=C(Nc1ccc(N2CCN(C(=O)c3ccccc3)CC2)cc1)c1cc([N+](=O)[O-])ccc1N1CCOCC1	-35.9%
COc1ccc(N2C(=O)[C@@H]3[C@H](C2=O)[C@H]2c4ccccc4C=CN2[C@@H]3C(C)=O)cc1	23%
CCC(C)c1ccccc1N1CC(C(=O)N2CCN(S(=O)(=O)c3ccccc3Br)CC2)CC1=O (stereo not drawn)	-16.2%
CCN1CCN(CCNC(=O)c2cc(Cl)c(NC(=O)C3=C(C)OCCS3)cc2OC)CC1	-73.4%
O=C(Nc1nc2cc3c(cc2s1)OCO3)c1cccc(N2C(=O)CCC2=O)c1	0.324%
COc1ccc(-c2nsc(SCC(=O)Nc3cc(C)on3)n2)cc1	11.8%
CCC(=O)NC1CCN(C(=S)NC)CC1	7.36%
CCN(Cc1ccc(O)cc1)CC1CCCN(CCc2cccc(F)c2)C1 (stereo not drawn)	-71.1%
C=CCn1c(SCC(=O)OCC)nc(C(F)(F)F)cc1=O	-11.6%

SMILES	hERG current change (%, negative = inhibition) at 10uM
COc1cc2c(cc1OC)C(C(=O)O)C(c1cc(Br)c(O)c(OC)c1)N(C)C2=O (stereo not drawn)	1.57%
Cc1nn(-c2ccc(NC(=O)c3ccncc3)cc2)c(C)c1Cl	9.73%
O=C(Nc1cccc(S(=O)(=O)N2CCOCC2)c1)c1ccco1	-9.84%
NP(=O)(OCCCc1ccccc1)Oc1ccccc1 (stereo not drawn)	4.28%
O=C1/C(=C\c2ccc(O)c(O)c2)SC(=S)N1Cc1ccccc1	16.3%
CCOC(=S)NC(=O)c1sc2ccccc2c1Cl	14.4%
CCOc1ccccc1NC(=O)C1CCN(C(=O)NCc2ccccc2)CC1	9.9%
CN1CCN(C(=O)C2CCN(S(=O)(=O)c3ccc(F)cc3)CC2)CC1	5.18%
c1ccc(CSC2=NCCS2)cc1	9.34%
CCCCCNC(=O)Cn1c(=O)c2c(ncn2CC(C)C)n(Cc2ccccc2)c1=O	5.64%
C=CCn1c(SCC(=O)c2[nH]c(C)c(C(=O)OCC)c2C)nc2scc(-c3ccccc3)c2c1=O	11.4%
CC1CCc2c(sc3c2C2=NS(=O)(=O)CCN2C=N3)C1 (stereo not drawn)	3.13%
CN(CC(=O)Nc1ccc(F)c(F)c1F)C(=O)c1ccc2c(c1)NC(=O)CS2	-21%
Brc1ccc(-c2nnc(-c3cccc(Br)c3)o2)cc1	1.34%
COC(=O)[C@H](Cc1ccccc1)NC(=O)N(C)Cc1ccccc1	6.03%
CC1CC(C)CN(S(=O)(=O)N2CCCC(C(=O)NCCc3ccccc3)C2)C1 (stereo not drawn)	8.74%
O=P1(Nc2cccnc2)COc2ccccc2OC1	30.6%
OCCC1CN(Cc2cnc(-c3ccc(Cl)cc3)nc2)CCN1C1CCCCC1 (stereo not drawn)	-73.6%
Cc1cccn2c(=O)c(/C=C(\C#N)C(=O)NC3CCS(=O)(=O)C3)c(Oc3ccccc3Cl)nc12 (stereo not drawn)	0.945%
